# Results: the supplement of paper PMC8728848
# Some of the results follow.
# Columns and labels:
# Test in all cases: glycan array binding signal (z-score within array); higher = stronger binding
# Settings in all cases: glycan notation: IUPAC condensed, linker removed
# [1] = biological target: Neu5Ac(a2-6)Gal(b1-4)GlcNAc(b1-6)GalNAc
# Method in brief: (§1)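 Glycan array binding is given as a within-array Z-score, which can be read as non-binding when negative. The arrays, 3228 of them, came from the Consortium for Functional Glycomics database and were retained only where the protein sequence was available. Z-scores were averaged across arrays of the same protein sequence at different concentrations or buffers and across linkers.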
# [2] = biological target: Neu5Ac(a2-6)Gal(b1-4)GlcNAc(b1-6)[Gal(b1-3)GlcNAc(b1-3)]Gal(b1-4)Glc
# Method in brief: as §1
# [3] = biological target: Neu5Ac(a2-6)Gal(b1-4)GlcNAc(b1-6)[Gal(b1-3)]GalNAc
# Method in brief: as §1
# [4] = biological target: Neu5Ac(a2-6)Gal(b1-4)GlcNAc6S
# Method in brief: as §1
# [5] = biological target: Neu5Ac(a2-6)GalNAc
# Method in brief: as §1
# [6] = biological target: Neu5Ac(a2-6)GalNAc(b1-4)GlcNAc
# Method in brief: as §1
# [7] = biological target: Neu5Ac(a2-6)GalNAc(b1-4)GlcNAc6S
# Method in brief: as §1
# [8] = biological target: Neu5Ac(a2-6)GlcNAc(b1-4)GlcNAc
# Method in brief: as §1
# [9] = biological target: Neu5Ac(a2-6)GlcNAc(b1-4)GlcNAc(b1-4)GlcNAc
# Method in brief: as §1
# [10] = biological target: Neu5Ac(a2-8)Neu5Ac
# Method in brief: as §1
# [11] = biological target: Neu5Ac(a2-8)Neu5Ac(a2-3)Gal(b1-3)GalNAc(b1-4)[Neu5Ac(a2-3)]Gal(b1-4)Glc
# Method in brief: as §1
# [12] = biological target: Neu5Ac(a2-8)Neu5Ac(a2-3)Gal(b1-3)GalNAc(b1-4)[Neu5Ac(a2-8)Neu5Ac(a2-3)]Gal(b1-4)Glc
# Method in brief: as §1
# [13] = biological target: Neu5Ac(a2-8)Neu5Ac(a2-3)Gal(b1-4)Glc
# Method in brief: as §1
# [14] = biological target: Neu5Ac(a2-8)Neu5Ac(a2-3)Gal(b1-4)GlcNAc
# Method in brief: as §1
# [15] = biological target: Neu5Ac(a2-8)Neu5Ac(a2-3)[Gal(b1-3)GalNAc(b1-4)]Gal(b1-4)Glc
# Method in brief: as §1
# [16] = biological target: Neu5Ac(a2-8)Neu5Ac(a2-3)[GalNAc(b1-4)]Gal(b1-4)Glc
# Method in brief: as §1
# [17] = biological target: Neu5Ac(a2-8)Neu5Ac(a2-8)Neu5Ac
# Method in brief: as §1
# [18] = biological target: Neu5Ac(a2-8)Neu5Ac(a2-8)Neu5Ac(a2-3)Gal(b1-4)Glc
# Method in brief: as §1
# [19] = biological target: Neu5Ac(a2-8)Neu5Ac(a2-8)Neu5Ac(a2-3)[Gal(b1-3)GalNAc(b1-4)]Gal(b1-4)Glc
# Method in brief: as §1
# [20] = biological target: Neu5Ac(a2-8)Neu5Ac(a2-8)Neu5Ac(a2-3)[GalNAc(b1-4)]Gal(b1-4)Glc
# Method in brief: as §1
# [21] = biological target: Neu5Ac(a2-8)Neu5Ac(a2-8)Neu5Ac(a2-8)Neu5Ac(a2-3)[GalNAc(b1-4)]Gal(b1-4)Glc
# Method in brief: as §1
# [22] = biological target: Neu5Ac(a2-8)Neu5Gc(a2-3)Gal(b1-4)GlcNAc
# Method in brief: as §1
# [23] = biological target: Neu5Ac(b2-6)Gal(b1-4)GlcNAc
# Method in brief: as §1
# [24] = biological target: Neu5Ac(b2-6)GalNAc
# Method in brief: as §1
# [25] = biological target: Neu5Ac9Ac(a2-3)Gal(b1-3)GlcNAc
# Method in brief: as §1
# [26] = biological target: Neu5Ac9Ac(a2-3)Gal(b1-4)GlcNAc
# Method in brief: as §1
# [27] = biological target: Neu5Ac9Ac(a2-6)Gal(b1-4)GlcNAc
# Method in brief: as §1
# [28] = biological target: Neu5Gc(a2-3)Gal(b1-3)GlcNAc
# Method in brief: as §1
# [29] = biological target: Neu5Gc(a2-3)Gal(b1-3)[Fuc(a1-4)]GlcNAc
# Method in brief: as §1
# [30] = biological target: Neu5Gc(a2-3)Gal(b1-4)Glc
# Method in brief: as §1
# [31] = biological target: Neu5Gc(a2-3)Gal(b1-4)GlcNAc
# Method in brief: as §1
# [32] = biological target: Neu5Gc(a2-3)Gal(b1-4)GlcNAc(b1-3)Gal(b1-4)GlcNAc(b1-2)Man(a1-3)[Neu5Gc(a2-3)Gal(b1-4)GlcNAc(b1-3)Gal(b1-4)GlcNAc(b1-2)Man(a1-6)]Man(b1-4)GlcNAc(b1-4)GlcNAc
# Method in brief: as §1
# [33] = biological target: Neu5Gc(a2-3)Gal(b1-4)[Fuc(a1-3)]GlcNAc
# Method in brief: as §1
# [34] = biological target: Neu5Gc(a2-6)Gal(b1-4)GlcNAc
# Method in brief: as §1
# [35] = biological target: Neu5Gc(a2-6)GalNAc
# Method in brief: as §1
# [36] = biological target: Neu5Gc(a2-8)Neu5Ac(a2-3)Gal(b1-4)GlcNAc
# Method in brief: as §1
# [37] = biological target: Neu5Gc(a2-8)Neu5Gc(a2-3)Gal(b1-4)GlcNAc
# Method in brief: as §1
# [38] = biological target: Neu5Gc(a2-8)Neu5Gc(a2-3)Gal(b1-4)GlcNAc(b1-3)Gal(b1-4)GlcNAc
# Method in brief: as §1
binder,measurement,setting,value
PX14367A-bth-493-35-493 (Bacteroides thetaiotaomicron) (protein) VSSDQVAVAGNAERLFNGAWYNLFEYGTTYANIGYRALQCQDDMMASDVVSRPKYGFNSSYQFNDVAIPSDGRTSFAWYLIYKTIDNCNTAISIKGDSEELRQAQGQALALRAFCYLHLVQHYQFTYLKDKDAPCVPIYTEPTTSGTKPKGKSTVAQVYQQIFDDLNLAQDYLTNYVRKGDGQKFKPNTDVVNGLMARAYLLTGQWGEAAKAAEAARKGYSLMTTTAEYEGFNNISNKEWIWGSPQTLSQSDASYNFYYLDATYVGAYSSFMADPHLMDTFVKGDIRLPLFQWMREGYLGYKKFHMRSDDTADLVLMRSAEMYLIEAEAKVRDGVALDQAVAPLNTLRTARGVGNYDVTGKTKEQVIDEILMERRRELWGEGFGITDVLRNQKAVERMALSEDMQKTEVDCWQEGGSFAKRNPLGHWFLNFPDGKAFSANSSYYLYAIPEKEINANPNL,glycan array binding signal (z-score),[1],-0.706
same,glycan array binding signal (z-score),[2],0.106
same,glycan array binding signal (z-score),[3],0.377
same,glycan array binding signal (z-score),[4],-0.513
same,glycan array binding signal (z-score),[5],-0.43
same,glycan array binding signal (z-score),[6],-0.719
same,glycan array binding signal (z-score),[7],-0.442
same,glycan array binding signal (z-score),[8],-0.254
same,glycan array binding signal (z-score),[9],-0.31
same,glycan array binding signal (z-score),[10],-0.536
same,glycan array binding signal (z-score),[11],-0.043
same,glycan array binding signal (z-score),[12],0.477
same,glycan array binding signal (z-score),[13],-0.436
same,glycan array binding signal (z-score),[14],-0.461
same,glycan array binding signal (z-score),[15],-0.3
same,glycan array binding signal (z-score),[16],-0.14
same,glycan array binding signal (z-score),[17],-0.109
same,glycan array binding signal (z-score),[18],-0.224
same,glycan array binding signal (z-score),[19],-0.506
same,glycan array binding signal (z-score),[20],0.062
same,glycan array binding signal (z-score),[21],1.03
same,glycan array binding signal (z-score),[22],11.1
same,glycan array binding signal (z-score),[23],-0.259
same,glycan array binding signal (z-score),[24],-0.169
same,glycan array binding signal (z-score),[25],-0.122
same,glycan array binding signal (z-score),[26],-0.272
same,glycan array binding signal (z-score),[27],-0.162
same,glycan array binding signal (z-score),[28],-0.453
same,glycan array binding signal (z-score),[29],-0.288
same,glycan array binding signal (z-score),[30],-0.51
same,glycan array binding signal (z-score),[31],-0.379
same,glycan array binding signal (z-score),[32],-0.346
same,glycan array binding signal (z-score),[33],-0.326
same,glycan array binding signal (z-score),[34],-0.3
same,glycan array binding signal (z-score),[35],0.297
same,glycan array binding signal (z-score),[36],-0.456
same,glycan array binding signal (z-score),[37],-0.549
same,glycan array binding signal (z-score),[38],-0.049
